Assay results published in the supplement of paper PMC12645437, “Orthogonal IMiD-Degron Pairs Induce Selective Protein Degradation in Cells” (ACS Chemical Biology, 2025).
Some of the results follow.

The sequences below were run against no compound (DMSO) (assay: log2 fold change of degron read counts, EGFP-low vs EGFP+ sorted cells; higher = lower degron-EGFP level without compound (poor expression or instability)). Conditions: compound: DMSO control; 18 h.
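Also: jurkat cells carrying a lentiviral library of mutant zinc finger degrons fused to EGFP plus mCherry, mCherry+ cells FACS sorted, degron abundance counted by next-generation sequencing.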

| Sequence | log2 fold change of degron read counts |
| --- | --- |
| FQCDQCGAPFTQKGNLLRHIKL | -2.13 |
| FSCDICGAIFTQKGNLLRHIKL | -0.78 |
| FLCDICGALFTQKGNLLRHIKL | -0.0437 |
| FMCEVCGAAFTQKGNLLRHIKL | -1.33 |
| FYCNQCGRQFTQKGNLLRHIKL | 0.061 |
| FRCEICGRQFTQKGNLLRHIKL | -0.812 |
| FECPQCGACFTQKGNLLRHIKL | -1.42 |
| LRCEICGFKCTQKGNLLRHIKL | -0.474 |
| FTCEVCGADFTQKGNLLRHIKL | -2.4 |
| FRCNQCGACFTQKGNLLRHIKL | -0.606 |
| FNCDICGAQFTQKGNLLRHIKL | -0.99 |
| FVCDVCGAVFTQKGNLLRHIKL | -0.95 |
| LICPICGFWCTQKGNLLRHIKL | 1.75 |
| FVCEICGRCFTQKGNLLRHIKL | -1.52 |
| LSCPICGFLCTQKGNLLRHIKL | 1.05 |
| FGCEQCGAYFTQKGNLLRHIKL | -0.41 |
| FICPICGRIFTQKGNLLRHIKL | 0.92 |
| LRCNQCGFKCTQKGNLLRHIKL | 0.964 |
| LACNQCGFPCTQKGNLLRHIKL | 0.891 |
| LGCNQCGFMCTQKGNLLRHIKL | 1.27 |
| FQCEICGHVFTQKGNLLRHIKL | -1.27 |
| FLCPVCGAYFTQKGNLLRHIKL | 0.716 |
| LRCNQCGFECTQKGNLLRHIKL | -0.266 |
| FTCEICGAGFTQKGNLLRHIKL | -1.23 |
| FECPICGRVFTQKGNLLRHIKL | -0.524 |

| Sequence | log2 fold change of degron read counts |
| --- | --- |
| FHCEVCGAIFTQKGNLLRHIKL | -0.963 |
| FTCEQCGALFTQKGNLLRHIKL | -1.48 |
| FICDQCGAMFTQKGNLLRHIKL | -1.02 |
| FACDQCGAPFTQKGNLLRHIKL | -1.41 |
| FACNVCGANFTQKGNLLRHIKL | -1.04 |
| FICNQCGRSFTQKGNLLRHIKL | -1.34 |
| FWCDVCGAAFTQKGNLLRHIKL | -0.722 |
| FNCNVCGAMFTQKGNLLRHIKL | -0.608 |
| FECEICGHAFTQKGNLLRHIKL | -1.43 |
| FECNICGAGFTQKGNLLRHIKL | -0.0384 |
| FTCEQCGAMFTQKGNLLRHIKL | -1.02 |
| FICPVCGATFTQKGNLLRHIKL | -0.433 |
| FGCDVCGAMFTQKGNLLRHIKL | -1.33 |
| FGCDVCGASFTQKGNLLRHIKL | -1.77 |
| FGCEQCGAPFTQKGNLLRHIKL | -0.874 |
| FGCDQCGAWFTQKGNLLRHIKL | 0.0444 |
| FMCNQCGRMFTQKGNLLRHIKL | 0.554 |
| FNCPQCGAAFTQKGNLLRHIKL | -1.08 |
| FICDQCGAQFTQKGNLLRHIKL | -1.71 |
| FGCPICGAIFTQKGNLLRHIKL | 0.771 |
| FWCNVCGAPFTQKGNLLRHIKL | 1.06 |
| LSCNQCGFACTQKGNLLRHIKL | 0.533 |
| FTCNQCGRMFTQKGNLLRHIKL | -1.13 |
| FKCEVCGAHFTQKGNLLRHIKL | -1.17 |
| FMCPICGHGFTQKGNLLRHIKL | -0.225 |
